# Measurements published in the supplement of paper PMC3334620.
# Whole data set: some 33,000 sequences, median “E-score (-0.5 to 0.5)” near -0.035, cut for the highest 2% near 0.35. The list shows a part of the results.
# Molecular target: T1, Pdr3 (UniProt P33200)
# T1 sequence: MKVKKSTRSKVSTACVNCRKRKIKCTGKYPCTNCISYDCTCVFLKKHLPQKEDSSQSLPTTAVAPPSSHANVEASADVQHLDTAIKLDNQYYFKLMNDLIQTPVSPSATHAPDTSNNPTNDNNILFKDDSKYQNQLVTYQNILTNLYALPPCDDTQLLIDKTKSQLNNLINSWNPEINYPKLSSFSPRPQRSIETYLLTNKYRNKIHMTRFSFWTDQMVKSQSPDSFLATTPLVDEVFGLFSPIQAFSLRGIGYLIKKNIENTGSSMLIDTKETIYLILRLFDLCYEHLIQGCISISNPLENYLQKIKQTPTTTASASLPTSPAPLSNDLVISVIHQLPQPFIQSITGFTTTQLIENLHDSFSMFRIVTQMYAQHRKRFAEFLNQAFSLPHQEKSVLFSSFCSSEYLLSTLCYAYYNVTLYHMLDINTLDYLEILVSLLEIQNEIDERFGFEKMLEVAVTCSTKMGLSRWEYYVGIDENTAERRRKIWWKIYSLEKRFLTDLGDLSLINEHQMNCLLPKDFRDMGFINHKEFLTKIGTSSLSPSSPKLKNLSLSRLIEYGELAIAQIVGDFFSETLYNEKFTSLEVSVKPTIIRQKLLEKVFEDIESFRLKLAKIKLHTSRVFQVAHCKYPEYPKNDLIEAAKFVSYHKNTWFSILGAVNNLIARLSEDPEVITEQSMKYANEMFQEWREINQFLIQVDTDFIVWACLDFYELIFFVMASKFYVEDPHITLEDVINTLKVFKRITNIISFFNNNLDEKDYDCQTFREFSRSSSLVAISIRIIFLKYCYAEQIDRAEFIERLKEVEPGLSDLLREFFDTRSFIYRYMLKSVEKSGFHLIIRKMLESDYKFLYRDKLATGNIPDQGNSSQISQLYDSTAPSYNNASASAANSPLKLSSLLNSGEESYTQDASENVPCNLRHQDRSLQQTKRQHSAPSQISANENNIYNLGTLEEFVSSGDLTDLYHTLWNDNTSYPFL
# Assay: PBM E-score (8-mer binding enrichment) (E-score (-0.5 to 0.5)); higher = stronger / more preferred TF binding; most listed sequences are background and not binding sites
# Conditions: protein concentration: 200 nM; construct: GST-full length
# Procedure, shortened: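 Masliner-normalised scans of fluorescent anti-GST signal were the basis for scoring. That signal came from GST-tagged yeast transcription factors applied at about 100-200 nM to double-stranded universal all-10-mer Agilent arrays on fresh or once-stripped slides. Each ungapped eight-base word, pooled with its reverse complement, received an E-score from the Universal PBM Analysis Suite.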
row,Sequence,PBM E-score
1,AACTTGCT,-0.142
2,TATTCCGA,0.407
3,ACCTGGAG,-0.144
4,TACTGCAA,-0.14
5,ATCACGGC,0.218
6,GTTCCTGA,-0.0384
7,AGTGACGC,0.044
8,AATATGAT,0.108
9,CGCTTTTA,0.036
10,ACGATCGA,-0.0056
11,AGTGCAGC,0.0987
12,GCTTAACC,-0.222
13,AACCACTA,-0.242
14,GGACGGGA,0.192
15,GAGTAAGA,0.0199
16,CCGTCTCG,0.19
17,GTGCCGGA,0.369
18,CTAGAGGC,-0.289
19,GCGCGTGA,0.109
20,AAAACCAC,-0.113
21,GGGTACAC,-0.139
22,CTCCATAC,-0.00794
23,ACACTAGG,-0.0887
24,GACGCTTA,-0.16
25,GGCACGGA,0.314

row,Sequence,PBM E-score
1,CCTCTCTA,-0.295
2,CTCTTGTA,-0.113
3,GCTCCAGC,0.0267
4,AGTCGTAA,-0.0371
5,GCCACGGC,0.0607
6,GGGAGCAA,-0.0166
7,GAAGCTCC,0.219
8,CCCAAGCA,-0.0736
9,CATACAGC,-0.205
10,GGTAAAAA,0.0643
11,GCTAAAGA,0.00571
12,TCTGATAA,-0.0999
13,TATCCAAA,-0.0382
14,AAGGACAC,-0.105
15,ACTGTCGC,0.0823
16,CACGCGGC,-0.00292
17,CAATACTC,0.0114
18,ATGAGCTC,0.0143
19,CGATGGGC,0.00151
20,CTCTGTTC,0.0293
21,CTAGAAAA,-0.105
22,GGATAATA,0.233
23,AAAGATTC,-0.0526
24,AAGGTGAC,-0.155
25,GTCGCAAC,0.0702

row,Sequence,PBM E-score
1,CTAACATA,-0.0761
2,GGCTTCGA,-0.0956
3,CACAAAGA,-0.149
4,ACGTAGAT,-0.068
5,AGGACCAC,-0.0788
6,GATTCCAC,0.19
7,GTCCTTTA,-0.0651
8,GGCGGGAC,0.295
9,ACCTCGTC,-0.0246
10,CGCGCCAG,0.11
11,GTGCCTCA,-0.148
12,GGTGGAAA,-0.048
13,CACGGCGC,0.222
14,CAGTAGAC,-0.109
15,GAATTAAC,-0.0501
16,GGTGGTTA,0.058
17,CTGGTTGC,0.152
18,AACACAGA,-0.088
19,AAAATTGG,-0.0852
20,GGGCTCGA,-0.161
21,CCGTTGTC,0.284
22,ACGGCTAT,0.0518
23,GAGCCTCA,-0.109
24,GGTTGCAC,0.00641
25,GCCGGAAA,0.42

row,Sequence,PBM E-score
1,TAGTCACA,-0.127
2,CTAAGGAG,-0.254
3,CCCGTATC,0.146
4,CCCCCGAA,-0.0602
5,CATCCTAC,-0.0647
6,AGCCACTG,0.0181
7,GAATCTAA,0.0898
8,AGCTGGCC,0.0998
9,GATAGGGC,0.0824
10,GCGATTTA,0.0969
11,AAAGGAAT,0.0349
12,AGTGATTA,0.0772
13,AATCTGAC,-0.128
14,CCCTCCGA,0.155
15,GGCTCTCA,-0.113
16,CATACTTA,-0.167
17,CAAGTCTA,-0.264
18,TAGGGCGA,-0.131
19,TAATGAGA,-0.153
20,CCTGGTCC,0.102
21,ATCCCCAA,-0.0668
22,CGACTATC,0.0465
23,ATAGAAAT,0.0946
24,CTGTGTCC,0.0118
25,CTTTTCTC,-0.181

row,Sequence,PBM E-score
1,ACTCTAGC,-0.299
2,GAGCACGC,-0.0355
3,AAAGTCGA,0.068
4,AACACGCT,-0.0239
5,AATCATAC,0.0206
6,ACCGTCTA,-0.0496
7,CCTATTCG,-0.061
8,CTCTGATA,-0.0373
9,CGCGCAGC,0.0673
10,ACTCGGTA,-0.164
11,AAGATCAG,-0.157
12,TAGCCCTA,-0.226
13,CGATGTCA,-0.0382
14,AACGCTAG,-0.229
15,CCATCATC,-0.157
16,ACGTCTCT,-0.203
17,AGAACGAG,-0.0522
18,TCCAGGCA,-0.0729
19,AAGACACA,-0.165
20,GTCCCGAA,0.0896
21,AAATATCT,0.109
22,CAGCATGA,-0.184
23,ACCGGGTA,0.154
24,GCTCACAA,-0.00352
25,ATATATAT,0.294

row,Sequence,PBM E-score
1,ATATCAAC,0.0435
2,CGTCCAAC,-0.0891
3,CTAGGCTC,-0.247
4,ACCGCGTG,0.0468
5,CACCCGCC,0.332
6,CGGGAAGC,0.282
7,GGAACTAC,0.212
8,GAAAAACA,-0.153
9,CCCTGGCA,0.0222
10,TAGGAGGA,-0.174
11,ACCTCAAA,-0.00213
12,ACTTACGA,0.134
13,AGGGTGGA,-0.0692
14,ATAGTATG,0.142
15,ATAACCTC,-0.0805
16,CAGTGTAG,-0.166
17,CCAAGTAA,-0.011
18,GTGCCCAC,-0.0988
19,CTTTTAGA,-0.133
20,GACGAGTA,-0.0519
21,AGAGTTAT,-0.0671
22,GACACAGC,-0.0237
23,CCCCCGCC,0.0181
24,CTTACGGC,-0.0318
25,AAACCGGA,0.346

row,Sequence,PBM E-score
1,AACCTTTA,-0.186
2,CCGTCCTC,0.151
3,GCTTTGCA,-0.189
4,CTGGCGCA,-0.204
5,AACACCCC,0.0302
6,CAAGAAAC,0.113
7,CGGTGTTA,0.182
8,ATGCGGGC,-0.0361
9,ACATCAGT,0.0466
10,GTCCTGCA,-0.258
11,ACATTTCG,-0.127
12,ATGGTCCG,0.387
13,CCCCCCGA,-0.0725
14,CGTACAAC,-0.0261
15,ATGCACGC,0.0919
16,ACCAGGCT,-0.4
17,GGTTGGAA,0.0933
18,TGCCCACA,-0.234
19,GCCCCGTA,-0.134
20,GGCCACTA,-0.0808
21,CAACCCAA,-0.113
22,TCCTACAA,0.00772
